Test results published in publication PMC11661359, “Structure guided functional analysis of the S. cerevisiae Mre11 complex” (Research Square, 2024).
These are yes or no findings as the source states them, for the method shown. Binding seen in cells or lysates may run through a third protein. Some entries that bind do so weakly or less than the wild type.

T1: Mre11 (wild type, in S. cerevisiae cell extracts) (S. cerevisiae) (UniProt P32829)
T1 sequence: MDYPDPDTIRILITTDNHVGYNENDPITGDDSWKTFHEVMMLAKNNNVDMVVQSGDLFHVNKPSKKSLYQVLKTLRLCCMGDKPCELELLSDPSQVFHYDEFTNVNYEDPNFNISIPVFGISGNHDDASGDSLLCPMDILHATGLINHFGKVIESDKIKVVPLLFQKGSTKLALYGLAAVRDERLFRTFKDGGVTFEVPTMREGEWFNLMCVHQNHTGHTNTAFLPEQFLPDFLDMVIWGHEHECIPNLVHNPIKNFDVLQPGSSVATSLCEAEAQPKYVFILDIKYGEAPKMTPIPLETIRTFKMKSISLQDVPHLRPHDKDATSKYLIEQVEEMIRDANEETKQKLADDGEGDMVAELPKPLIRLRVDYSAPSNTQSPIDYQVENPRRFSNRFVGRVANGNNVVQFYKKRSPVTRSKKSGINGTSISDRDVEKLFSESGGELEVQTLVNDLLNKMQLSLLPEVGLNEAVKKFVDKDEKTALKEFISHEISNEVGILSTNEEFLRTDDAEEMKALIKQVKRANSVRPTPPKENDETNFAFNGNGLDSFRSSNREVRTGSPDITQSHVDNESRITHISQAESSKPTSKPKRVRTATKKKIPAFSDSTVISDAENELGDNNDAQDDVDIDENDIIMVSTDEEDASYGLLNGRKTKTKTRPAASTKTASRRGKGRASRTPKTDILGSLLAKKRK

B1: Rad50-T111A R1201A (enzyme, UniProt P12753 1-1312)
chain: MSAIYKLSIQGIRSFDSNDRETIEFGKPLTLIVGMNGSGKTTIIECLKYATTGDLPPNSKGGVFIHDPKITGEKDIRAQVKLAFTSANGLNMIVTRNIQLLMKKTTTTFKALEGQLVAINNSGDRSTLSTRSLELDAQVPLYLGVPKAILEYVIFCHQEDSLWPLSEPSNLKKKFDEIFQAMKFTKALDNLKSIKKDMSVDIKLLKQSVEHLKLDKDRSKAMKLNIHQLQTKIDQYNEEVSEIESQLNEITEKSDKLFKSNQDFQKILSKVENLKNTKLSISDQVKRLSNSIDILDLSKPDLQNLLANFSKVLMDKNNQLRDLETDISSLKDRQSSLQSLSNSLIRRQGELEAGKETYEKNRNHLSSLKEAFQHKFQGLSNIENSDMAQVNHEMSQFKAFISQDLTDTIDQFAKDIQLKETNLSDLIKSITVDSQNLEYNKKDRSKLIHDSEELAEKLKSFKSLSTQDSLNHELENLKTYKEKLQSWESENIIPKLNQKIEEKNNEMIILENQIEKFQDRIMKTNQQADLYAKLGLIKKSINTKLDELQKITEKLQNDSRIRQVFPLTQEFQRADLEMDFQKLFINMQKNIAINNKKMHELDRRYTNALYNLNTIEKDLQDNQKSKEKVIQLLSENLPEDCTIDEYNDVLEETELSYKTALENLKMHQTTLEFNRKALEIAERDSCCYLCSRKFENESFKSKLLQELKTKTDANFEKTLKDTVQNEKEYLHSLRLLEKHIITLNSINEKIDNSQKCLEKAKEETKTSKSKLDELEVDSTKLKDEKELAESEIRPLIEKFTYLEKELKDLENSSKTISEELSIYNTSEDGIQTVDELRDQQRKMNDSLRELRKTISDLQMEKDEKVRENSRMINLIKEKELTVSEIESSLTQKQNIDDSIRSKRENINDIDSRVKELEARIISLKNKKDEAQSVLDKVKNERDIQVRNKQKTVADINRLIDRFQTIYNEVVDFEAKGFDELQTTIKELELNKAQMLELKEQLDLKSNEVNEEKRKLADSNNEEKNLKQNLELIELKSQLQHIESEISRLDVQNAEAERDKYQEESLRLRTRFEKLSSENAGKLGEMKQLQNQIDSLTHQLRTDYKDIEKNYHKEWVELQTRSFVTDDIDVYSKALDSAIMKYHGLKMQDINRIIDELWKRTYSGTDIDTIKIRSDEVSSTVKGKSYNYRVVMYKQDVELDMAGRCSAGQKVLASIIIRLALSETFGANCGVIALDEPTTNLDEENIESLAKSLHNIINMRRHQKNFQLIVITHDEKFLGHMNAAAFTDHFFKVKRDDRQKSQIEWVDINRVTY
B2: Rad50–3KA (Rad50-K192A K195A K196A) (enzyme, UniProt P12753 1-1312)
chain: MSAIYKLSIQGIRSFDSNDRETIEFGKPLTLIVGMNGSGKTTIIECLKYATTGDLPPNSKGGVFIHDPKITGEKDIRAQVKLAFTSANGLNMIVTRNIQLLMKKTTTTFKTLEGQLVAINNSGDRSTLSTRSLELDAQVPLYLGVPKAILEYVIFCHQEDSLWPLSEPSNLKKKFDEIFQAMKFTKALDNLASIAADMSVDIKLLKQSVEHLKLDKDRSKAMKLNIHQLQTKIDQYNEEVSEIESQLNEITEKSDKLFKSNQDFQKILSKVENLKNTKLSISDQVKRLSNSIDILDLSKPDLQNLLANFSKVLMDKNNQLRDLETDISSLKDRQSSLQSLSNSLIRRQGELEAGKETYEKNRNHLSSLKEAFQHKFQGLSNIENSDMAQVNHEMSQFKAFISQDLTDTIDQFAKDIQLKETNLSDLIKSITVDSQNLEYNKKDRSKLIHDSEELAEKLKSFKSLSTQDSLNHELENLKTYKEKLQSWESENIIPKLNQKIEEKNNEMIILENQIEKFQDRIMKTNQQADLYAKLGLIKKSINTKLDELQKITEKLQNDSRIRQVFPLTQEFQRADLEMDFQKLFINMQKNIAINNKKMHELDRRYTNALYNLNTIEKDLQDNQKSKEKVIQLLSENLPEDCTIDEYNDVLEETELSYKTALENLKMHQTTLEFNRKALEIAERDSCCYLCSRKFENESFKSKLLQELKTKTDANFEKTLKDTVQNEKEYLHSLRLLEKHIITLNSINEKIDNSQKCLEKAKEETKTSKSKLDELEVDSTKLKDEKELAESEIRPLIEKFTYLEKELKDLENSSKTISEELSIYNTSEDGIQTVDELRDQQRKMNDSLRELRKTISDLQMEKDEKVRENSRMINLIKEKELTVSEIESSLTQKQNIDDSIRSKRENINDIDSRVKELEARIISLKNKKDEAQSVLDKVKNERDIQVRNKQKTVADINRLIDRFQTIYNEVVDFEAKGFDELQTTIKELELNKAQMLELKEQLDLKSNEVNEEKRKLADSNNEEKNLKQNLELIELKSQLQHIESEISRLDVQNAEAERDKYQEESLRLRTRFEKLSSENAGKLGEMKQLQNQIDSLTHQLRTDYKDIEKNYHKEWVELQTRSFVTDDIDVYSKALDSAIMKYHGLKMQDINRIIDELWKRTYSGTDIDTIKIRSDEVSSTVKGKSYNYRVVMYKQDVELDMRGRCSAGQKVLASIIIRLALSETFGANCGVIALDEPTTNLDEENIESLAKSLHNIINMRRHQKNFQLIVITHDEKFLGHMNAAAFTDHFFKVKRDDRQKSQIEWVDINRVTY
B3: Rad50-K195A R1201A (enzyme, UniProt P12753 1-1312)
chain: MSAIYKLSIQGIRSFDSNDRETIEFGKPLTLIVGMNGSGKTTIIECLKYATTGDLPPNSKGGVFIHDPKITGEKDIRAQVKLAFTSANGLNMIVTRNIQLLMKKTTTTFKTLEGQLVAINNSGDRSTLSTRSLELDAQVPLYLGVPKAILEYVIFCHQEDSLWPLSEPSNLKKKFDEIFQAMKFTKALDNLKSIAKDMSVDIKLLKQSVEHLKLDKDRSKAMKLNIHQLQTKIDQYNEEVSEIESQLNEITEKSDKLFKSNQDFQKILSKVENLKNTKLSISDQVKRLSNSIDILDLSKPDLQNLLANFSKVLMDKNNQLRDLETDISSLKDRQSSLQSLSNSLIRRQGELEAGKETYEKNRNHLSSLKEAFQHKFQGLSNIENSDMAQVNHEMSQFKAFISQDLTDTIDQFAKDIQLKETNLSDLIKSITVDSQNLEYNKKDRSKLIHDSEELAEKLKSFKSLSTQDSLNHELENLKTYKEKLQSWESENIIPKLNQKIEEKNNEMIILENQIEKFQDRIMKTNQQADLYAKLGLIKKSINTKLDELQKITEKLQNDSRIRQVFPLTQEFQRADLEMDFQKLFINMQKNIAINNKKMHELDRRYTNALYNLNTIEKDLQDNQKSKEKVIQLLSENLPEDCTIDEYNDVLEETELSYKTALENLKMHQTTLEFNRKALEIAERDSCCYLCSRKFENESFKSKLLQELKTKTDANFEKTLKDTVQNEKEYLHSLRLLEKHIITLNSINEKIDNSQKCLEKAKEETKTSKSKLDELEVDSTKLKDEKELAESEIRPLIEKFTYLEKELKDLENSSKTISEELSIYNTSEDGIQTVDELRDQQRKMNDSLRELRKTISDLQMEKDEKVRENSRMINLIKEKELTVSEIESSLTQKQNIDDSIRSKRENINDIDSRVKELEARIISLKNKKDEAQSVLDKVKNERDIQVRNKQKTVADINRLIDRFQTIYNEVVDFEAKGFDELQTTIKELELNKAQMLELKEQLDLKSNEVNEEKRKLADSNNEEKNLKQNLELIELKSQLQHIESEISRLDVQNAEAERDKYQEESLRLRTRFEKLSSENAGKLGEMKQLQNQIDSLTHQLRTDYKDIEKNYHKEWVELQTRSFVTDDIDVYSKALDSAIMKYHGLKMQDINRIIDELWKRTYSGTDIDTIKIRSDEVSSTVKGKSYNYRVVMYKQDVELDMAGRCSAGQKVLASIIIRLALSETFGANCGVIALDEPTTNLDEENIESLAKSLHNIINMRRHQKNFQLIVITHDEKFLGHMNAAAFTDHFFKVKRDDRQKSQIEWVDINRVTY
B4: Rad50-K192A R1201A (enzyme, UniProt P12753 1-1312)
chain: MSAIYKLSIQGIRSFDSNDRETIEFGKPLTLIVGMNGSGKTTIIECLKYATTGDLPPNSKGGVFIHDPKITGEKDIRAQVKLAFTSANGLNMIVTRNIQLLMKKTTTTFKTLEGQLVAINNSGDRSTLSTRSLELDAQVPLYLGVPKAILEYVIFCHQEDSLWPLSEPSNLKKKFDEIFQAMKFTKALDNLASIKKDMSVDIKLLKQSVEHLKLDKDRSKAMKLNIHQLQTKIDQYNEEVSEIESQLNEITEKSDKLFKSNQDFQKILSKVENLKNTKLSISDQVKRLSNSIDILDLSKPDLQNLLANFSKVLMDKNNQLRDLETDISSLKDRQSSLQSLSNSLIRRQGELEAGKETYEKNRNHLSSLKEAFQHKFQGLSNIENSDMAQVNHEMSQFKAFISQDLTDTIDQFAKDIQLKETNLSDLIKSITVDSQNLEYNKKDRSKLIHDSEELAEKLKSFKSLSTQDSLNHELENLKTYKEKLQSWESENIIPKLNQKIEEKNNEMIILENQIEKFQDRIMKTNQQADLYAKLGLIKKSINTKLDELQKITEKLQNDSRIRQVFPLTQEFQRADLEMDFQKLFINMQKNIAINNKKMHELDRRYTNALYNLNTIEKDLQDNQKSKEKVIQLLSENLPEDCTIDEYNDVLEETELSYKTALENLKMHQTTLEFNRKALEIAERDSCCYLCSRKFENESFKSKLLQELKTKTDANFEKTLKDTVQNEKEYLHSLRLLEKHIITLNSINEKIDNSQKCLEKAKEETKTSKSKLDELEVDSTKLKDEKELAESEIRPLIEKFTYLEKELKDLENSSKTISEELSIYNTSEDGIQTVDELRDQQRKMNDSLRELRKTISDLQMEKDEKVRENSRMINLIKEKELTVSEIESSLTQKQNIDDSIRSKRENINDIDSRVKELEARIISLKNKKDEAQSVLDKVKNERDIQVRNKQKTVADINRLIDRFQTIYNEVVDFEAKGFDELQTTIKELELNKAQMLELKEQLDLKSNEVNEEKRKLADSNNEEKNLKQNLELIELKSQLQHIESEISRLDVQNAEAERDKYQEESLRLRTRFEKLSSENAGKLGEMKQLQNQIDSLTHQLRTDYKDIEKNYHKEWVELQTRSFVTDDIDVYSKALDSAIMKYHGLKMQDINRIIDELWKRTYSGTDIDTIKIRSDEVSSTVKGKSYNYRVVMYKQDVELDMAGRCSAGQKVLASIIIRLALSETFGANCGVIALDEPTTNLDEENIESLAKSLHNIINMRRHQKNFQLIVITHDEKFLGHMNAAAFTDHFFKVKRDDRQKSQIEWVDINRVTY

What follows are binders tested against T1, Mre11 (wild type, in S. cerevisiae cell extracts) (S. cerevisiae) (assay: co-IP; cells grown at 30°C or 37°C; Rad50, Mre11 or Xrs2 immunoprecipitated from cell extracts, western blot with anti-Rad50, anti-Mre11 or anti-Xrs2 antibodies).

binding, binds:
B1
B2
B3
B4
